PMC4336329 (PLoS ONE, 2015)
The whole screen tested about 310,000 compounds, of which about 2,200 (0.71%) showed an effect of 50% or more. The effect is printed as a negative number. This is one part of the list.

target: human ether-à-go-go-related gene (hERG) potassium channel (human, UniProt Q12809); experiment: primary screen, population patch clamp on CHO cells stably expressing hERG
Sequence (Q12809 whole entry, looked up): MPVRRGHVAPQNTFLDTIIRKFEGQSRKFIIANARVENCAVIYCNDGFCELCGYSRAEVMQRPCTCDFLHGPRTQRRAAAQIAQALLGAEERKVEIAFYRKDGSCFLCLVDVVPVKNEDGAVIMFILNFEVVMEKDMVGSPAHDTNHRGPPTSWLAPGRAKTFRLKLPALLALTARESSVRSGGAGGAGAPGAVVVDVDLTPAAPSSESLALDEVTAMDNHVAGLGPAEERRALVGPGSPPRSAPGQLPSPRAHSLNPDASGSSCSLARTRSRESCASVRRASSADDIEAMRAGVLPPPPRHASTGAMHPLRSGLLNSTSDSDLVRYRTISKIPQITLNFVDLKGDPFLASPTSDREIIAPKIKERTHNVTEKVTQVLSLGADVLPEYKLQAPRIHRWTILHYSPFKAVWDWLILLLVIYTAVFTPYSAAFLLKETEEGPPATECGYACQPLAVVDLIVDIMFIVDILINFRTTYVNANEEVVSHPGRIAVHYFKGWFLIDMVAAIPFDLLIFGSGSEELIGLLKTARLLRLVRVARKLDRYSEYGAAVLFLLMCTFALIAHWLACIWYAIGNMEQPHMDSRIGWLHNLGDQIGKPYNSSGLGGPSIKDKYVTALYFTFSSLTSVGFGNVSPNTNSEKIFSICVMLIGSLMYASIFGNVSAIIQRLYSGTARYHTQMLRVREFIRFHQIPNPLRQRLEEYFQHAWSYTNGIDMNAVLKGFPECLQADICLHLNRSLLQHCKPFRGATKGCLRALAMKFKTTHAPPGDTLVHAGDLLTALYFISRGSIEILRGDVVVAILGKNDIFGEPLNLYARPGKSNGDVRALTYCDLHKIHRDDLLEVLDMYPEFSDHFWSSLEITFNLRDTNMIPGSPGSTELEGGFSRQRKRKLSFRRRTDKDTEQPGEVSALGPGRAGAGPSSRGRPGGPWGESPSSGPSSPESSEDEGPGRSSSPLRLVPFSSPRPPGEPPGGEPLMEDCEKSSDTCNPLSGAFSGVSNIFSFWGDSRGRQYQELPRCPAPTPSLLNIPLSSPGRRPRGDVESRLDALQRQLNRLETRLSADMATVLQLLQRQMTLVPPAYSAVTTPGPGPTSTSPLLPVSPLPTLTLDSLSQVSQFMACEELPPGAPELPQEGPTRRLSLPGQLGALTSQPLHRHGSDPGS

Compared with `COc1ccc(NC(=O)C2CC2)cc1NS(=O)(=O)c1ccc(F)cc1`, `NNC(=O)c1cccc(S(=O)(=O)Nc2cc(Cl)ccc2Cl)c1` is higher in “hERG current change (%, negative = inhibition) at 1uM” value: 9.01% for the first, 10.2% for the second.

First: CCC1=[N+](CC(=O)c2ccc(Br)cc2)CCn2c(C)ccc21.[Br-]
Second: CCc1ccc(-c2nc3ccc(Br)cc3c(C(=O)O)c2C)s1
The “hERG current change (%, negative = inhibition) at 1uM” value of the first is lower: 2.38% for the first, 18.3% for the second.

Compared with `Cn1c(=O)c(C(=O)NCc2ccccc2Cl)c(O)c2ccccc21`, `O=C(CNC(=O)Cc1ccccc1)N=Nc1c(O)[nH]c2ccccc12` is lower in “hERG current change (%, negative = inhibition) at 1uM” value: 15.1% for the first, 13.5% for the second.

Going from `CCOc1ccc(NC(=O)CSc2nc(C)c3c(c2C#N)CCCC3)cc1` to `O=C(Nc1cccnc1)c1noc2c1CCCC2`, the “hERG current change (%, negative = inhibition) at 1uM” value falls from -5.6% to -6.33%.

Going from `O=C(O)C(Cc1ccccc1)N1C(=O)c2c(Cl)c(Cl)c(Cl)c(Cl)c2C1=O` (centres unmarked) to `CCOc1ccccc1N1C(=O)c2ccc(C(=O)O)cc2C1=O`, the “hERG current change (%, negative = inhibition) at 1uM” value rises from 6.99% to 7.81%.

First: Cc1ccccc1C(=O)N1CCN(S(=O)(=O)c2ccccc2)CC1
Second: O=S(=O)(c1ccc(Br)c2ccccc12)N1CCCC1
The “hERG current change (%, negative = inhibition) at 1uM” value of the first is lower: 11.5% for the first, 20.3% for the second.

Going from `CCCOc1ccc(CC(=O)NCc2ccco2)cc1OC` to `CCn1cc(C(=O)NCCCOC)c2cc(OC)c(OC)cc2c1=O`, the “hERG current change (%, negative = inhibition) at 1uM” value falls from 12.1% to 2.85%.

First: COc1ccc2nc(N3CCOCC3)cc(C)c2c1
Second: Cc1c(NS(=O)(=O)c2ccc(Cl)c(C(=O)OC(C)C(=O)N3CCOCC3)c2)c(=O)n(-c2ccccc2)n1C (centres unmarked)
The “hERG current change (%, negative = inhibition) at 1uM” value of the first is higher: 12.9% for the first, 5.13% for the second.

Compared with `CC1=C(C(=O)OCC2CCCO2)C(c2ccccc2OC(C)C)C2=C(CC(c3ccco3)CC2=O)N1` (centres unmarked), `CCC(C)OC(=O)C1=C(C)NC2=C(C(=O)C(C(=O)OC)C(C)C2)C1c1ccc(N(C)C)cc1` (centres unmarked) is higher in “hERG current change (%, negative = inhibition) at 1uM” value: -5.16% for the first, 7.82% for the second.

Going from `COc1cc(-n2c(=O)c3ccccc3n(Cc3cccnc3)c2=O)cc(OC)c1OC` to `COc1ccc(O)c(/C=N/NC(=O)CSc2nnc(C)n2-c2ccccc2)c1`, the “hERG current change (%, negative = inhibition) at 1uM” value rises from 9.62% to 11.2%.

Compared with `COc1cccc(C(=O)NC2CC3CCCC(C2)N3CC(=O)Nc2ccccc2)c1.Cl` (centres unmarked), `CCC(C)NC(=O)Cn1c(=O)n(CCCCCC(=O)Nc2ccccc2)c(=O)c2sccc21` (centres unmarked) is higher in “hERG current change (%, negative = inhibition) at 1uM” value: -9.02% for the first, 7.46% for the second.

First: COc1ccc2[nH]c(=O)c(CN(Cc3cccs3)Cc3nnnn3C(C)(C)C)cc2c1
Second: CCN(c1ccc(OC)cc1)S(=O)(=O)c1ccc(-c2ccc(=O)[nH]n2)o1
The “hERG current change (%, negative = inhibition) at 1uM” value of the first is lower: -6.85% for the first, 19.1% for the second.

Compared with `O=C(COc1ccccc1Cl)NNC(=O)C1CCCO1` (centres unmarked), `O=C(NN=C1CCCC1)c1cc(-c2ccccc2)n[nH]1` is higher in “hERG current change (%, negative = inhibition) at 1uM” value: 3.63% for the first, 7.49% for the second.

Compared with `CC(C)NS(=O)(=O)c1ccc(CCC(=O)N2CCC(C(N)=O)CC2)cc1`, `O=C(NCc1ccncc1)C(=O)NCC1OCCN1S(=O)(=O)c1ccc(Br)cc1` (centres unmarked) is lower in “hERG current change (%, negative = inhibition) at 1uM” value: 10.7% for the first, 10.5% for the second.

First: CCCC(=O)NCCCc1nc2ccccc2[nH]1
Second: CCn1nc(C(=O)OCC(=O)NCC(C)C)c2ccccc2c1=O
The “hERG current change (%, negative = inhibition) at 1uM” value of the first is higher: 22.9% for the first, 8.86% for the second.

Going from `CC(C)CCNC(=S)Nc1ccccc1F` to `O=C(NC(=S)NCc1cccnc1)c1ccc([N+](=O)[O-])cc1`, the “hERG current change (%, negative = inhibition) at 1uM” value rises from -5.96% to -2.83%.

Going from `O=C(CCN1C(=O)c2cccc3cccc(c23)C1=O)N1CCN(Cc2ccc3c(c2)OCO3)CC1` to `Cc1cc(-c2nn(-c3ccccc3F)cc2CN2CCC(C(N)=O)CC2)c(C)s1`, the “hERG current change (%, negative = inhibition) at 1uM” value rises from -7.05% to 21.1%.

Compared with `CC12CCC(=O)N1C(C(=O)Nc1cc(C(F)(F)F)ccc1N1CCCCC1)CS2` (centres unmarked), `COc1cc(C(=O)NCC2CCCCC2)ccc1OCc1c(C)noc1C` is lower in “hERG current change (%, negative = inhibition) at 1uM” value: 17.2% for the first, 6.4% for the second.

Going from `Cc1ccc(NC(=S)Nc2ccc3cn[nH]c3c2)cc1` to `Cc1ccc(S(=O)(=O)Nc2cccc(C(=O)NCC(c3ccco3)N(C)C)c2)cc1F` (centres unmarked), the “hERG current change (%, negative = inhibition) at 1uM” value falls from 9.91% to 3.32%.

Compared with `COc1ccc(C(=O)C2CN(c3ccccc3)CC2c2ccc(Cl)cc2)cc1` (centres unmarked), `COc1ccccc1N1CC(C(=O)Nc2nnc(SCc3ccccn3)s2)CC1=O` (centres unmarked) is higher in “hERG current change (%, negative = inhibition) at 1uM” value: 0.206% for the first, 2.91% for the second.

Going from `COc1cc(C2NC(=O)NC(C)=C2C(=O)OC(C)(C)C)ccc1OCC(N)=O` (centres unmarked) to `COCCN1C=C2C(=O)C(C)(OC(=O)CCC(=O)OC)C(=O)C=C2C=C1C1CC1` (centres unmarked), the “hERG current change (%, negative = inhibition) at 1uM” value rises from 8.07% to 11.8%.

Compared with `CC(C)n1cc(C(=O)c2cc(Br)ccc2O)cc(C#N)c1=O`, `CCc1noc(C)c1C(=O)N(CC)CC(=O)Nc1cc(Cl)ccc1C` is lower in “hERG current change (%, negative = inhibition) at 1uM” value: 10.4% for the first, 6.21% for the second.
